Source: the supplement of paper PMC4166925
± gives the standard deviation of the averaged measurements. Whole data set: some 33,000 sequences, median “E-score (dimensionless, -0.5 to 0.5)” near -0.046, cut for the highest 2% near 0.36. This is one part of the list.

tested on: T1, SpTbr T-box DNA-binding domain (GST fusion); experiment: PBM E-score of 8-mer (E-score (dimensionless, -0.5 to 0.5)); Tbr is Tbrain of the sea star Patiria miniata (Pm) or the sea urchin Strongylocentrotus purpuratus (Sp); higher = stronger binding preference; most listed sequences are background and not binding sites; conditions: the construct has about 5 more residues each side
T1 sequence: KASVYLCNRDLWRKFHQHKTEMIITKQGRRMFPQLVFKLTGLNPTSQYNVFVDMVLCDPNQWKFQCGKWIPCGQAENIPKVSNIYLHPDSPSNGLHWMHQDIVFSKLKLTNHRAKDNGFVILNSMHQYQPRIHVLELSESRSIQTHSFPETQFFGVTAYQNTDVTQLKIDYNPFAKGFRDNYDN
Protocol: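 Universal protein-binding microarray (Agilent AMADID 016060, 60-bp probes with a 35-bp variable region) incubated with 200 nM GST-fused Strongylocentrotus purpuratus Tbr T-box DNA-binding domain (residues 362-554) in PBS pH 7.5. Scored for every ungapped 8-mer (given with its reverse complement) as E-score (range -0.5 to 0.5; >0.45 counts as bound) and Z-score of median probe intensity. Two replicate arrays (datasets 1 and 2).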
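Note: protein at 200 nM in PBS on universal double-stranded arrays.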

| Sequence | PBM E-score of 8-mer |
| --- | --- |
| ACATTTAC | 0.0595 ± 0.061 |
| ACAATTGC | 0.265 ± 0.036 |
| ATTCAGAC | -0.11 ± 0.0071 |
| CCTAGTGA | 0.0721 ± 0.072 |
| CTAAAGGC | -0.0335 ± 0.042 |
| CGTTTTTA | -0.0675 ± 0.078 |
| GGGCATAC | -0.246 ± 0.087 |
| CTCTGTCA | -0.0399 ± 0.02 |
| CCCTGCGA | 0.23 ± 0.044 |
| CGTCGGCA | 0.176 ± 0.047 |
| CGTCGCAA | 0.168 ± 0.074 |
| CGGCGTGA | 0.33 ± 0.047 |
| CCTACCAA | -0.134 ± 0.099 |
| AGGGTGCA | 0.188 ± 0.025 |
| AACTTGAA | -0.165 ± 0.064 |
| CTTTCTGA | -0.136 ± 0.0074 |
| AAATCACC | 0.15 ± 0.054 |
| GCACAGGA | -0.165 ± 0.11 |
| GTCAAAGA | 0.0178 ± 0.017 |
| AATCCGCT | -0.0264 ± 0.074 |
| GGATATAC | -0.128 ± 0.0093 |
| TACGTAGA | -0.178 ± 0.03 |

| Sequence | PBM E-score of 8-mer |
| --- | --- |
| ACAGCTCA | 0.267 ± 0.0069 |
| CATTCCGC | -0.141 ± 0.011 |
| ATAGACAG | 0.031 ± 0.055 |
| CTCGGTTC | 0.0332 ± 0.0022 |
| AAGTATTC | -0.169 ± 0.032 |
| AGAGTGCT | -0.0252 ± 0.00083 |
| CAGCTCAA | -0.0425 ± 0.024 |
| ATTTGGCC | -0.0948 ± 0.054 |
| AACGCCTT | 0.367 ± 0.041 |
| ATCATAAT | -0.12 ± 0.018 |
| CGGCGTTA | 0.182 ± 0.0041 |
| ATTGAGCC | -0.00974 ± 0.0028 |
| CAGTTTGC | 0.177 ± 0.02 |
| CATAAAGG | -0.201 ± 0.0029 |
| CCTCCTAA | -0.2059 ± 0.001 |
| CAGTCTCC | -0.203 ± 0.075 |
| GATAGACC | -0.237 ± 0.014 |
| ATAAAAAC | -0.268 ± 0.15 |
| CACCAGGC | 0.0753 ± 0.055 |
| TATAAGGA | -0.225 ± 0.034 |
| TAAGTAGA | -0.00118 ± 0.072 |
| CACCTAAG | 0.383 ± 0.019 |

| Sequence | PBM E-score of 8-mer |
| --- | --- |
| CCCTTCAG | -0.197 ± 0.012 |
| ATCTCAGA | -0.101 ± 0.0026 |
| CACCGATA | 0.0129 ± 0.1 |
| AGTTATGG | -0.0468 ± 0.017 |
| ATGATGCC | -0.0159 ± 0.0065 |
| ATTCACGC | 0.424 ± 0.0061 |
| GACTACGA | 0.0309 ± 0.02 |
| GAAGCCCA | -0.236 ± 0.044 |
| GATGTACC | -0.237 ± 0.025 |
| AACCGGGC | -0.154 ± 0.04 |
| CCGGTGCA | -0.182 ± 0.092 |
| AGCTGTAA | 0.035 ± 0.08 |
| CCGGCAGG | -0.0984 ± 0.018 |
| CCTTTGAG | -0.17 ± 0.018 |
| CTCATATC | -0.0945 ± 0.0071 |
| TATGGTCA | -0.0991 ± 0.065 |
| ATGAGGGA | -0.142 ± 0.035 |
| AGATGTTG | 0.0448 ± 0.039 |
| AGTTTAAA | 0.0237 ± 0.0037 |
| AGGTCGGG | -0.212 ± 0.048 |
| GACGCTCA | 0.0551 ± 0.034 |
| GCAGAAGC | -0.189 ± 0.017 |

| Sequence | PBM E-score of 8-mer |
| --- | --- |
| ACAGTTAT | 0.113 ± 0.024 |
| AGCTAGCA | 0.0518 ± 0.0069 |
| GACCCCAA | -0.164 ± 0.023 |
| AATGCAGT | -0.188 ± 0.028 |
| CCATGTGC | 0.205 ± 0.015 |
| AGCCAGGG | -0.2 ± 0.055 |
| ACTGGATG | -0.11 ± 0.062 |
| AGCCTCTC | -0.0976 ± 0.019 |
| CCACACCG | 0.226 ± 0.071 |
| CAGCAGCG | -0.139 ± 0.038 |
| CCTGCGAC | 0.175 ± 0.017 |
| CGTAAGCA | 0.0121 ± 0.027 |
| CAGTCCAG | -0.161 ± 0.049 |
| AGATAAAC | -0.0463 ± 0.0019 |
| CGGGCCAG | -0.142 ± 0.059 |
| CTTGGGGC | 0.0489 ± 0.022 |
| CAGCGCAA | -0.0911 ± 0.0026 |
| AAGACATG | 0.0325 ± 0.038 |
| GGCCCAAA | -0.218 ± 0.064 |
| ACTGGACC | -0.203 ± 0.069 |
